Measurements from PubChem BioAssay AID1508624 (National Center for Advancing Translational Sciences (NCATS), 2021).
In all, about 48,000 compounds went through this assay and about 120 (0.25%) were called active. Not shown: some 4% with an inconclusive outcome. Calls follow the shape of the dose curve; as a rule, active = well fitted activation curve with a large enough effect; inconclusive = small, poorly fitted or top-dose-only effect, or another doubt; inactive = no such curve, though single readings can be large or run the other way. The list shows a part of the results.

test: Primary qHTS for Identification of Small Molecule Activators of Huntingtin-Antisense Promoter Activity; conditions: HEK293 HTT-AS promoter firefly luciferase reporter (activity 0% = vehicle and -100% = no light), 24 h; series mostly up to 57.5 µM; activity change, positive = activation: at the top concentration; also: nearly all actives have a fitted effect of over 55% in size
Outline: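 HEK293 cells carrying firefly luciferase reporters were seeded at 2,500 per well in Opti-MEM and cultured for 24 h. They were then treated with compounds at up to 57.5 uM final for 24 h at 37 degrees C before Dual-Glo luminescence readout.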

Activity change, positive = activation, inactive:
Cc1cc(NC(=O)C2CCN(S(=O)(=O)c3cccc4nsnc34)CC2)ccc1Br -29.8%
Cc1cccc(C(=O)N2c3nc(-c4ccco4)nn3C3(CCCCC3)[C@@H]3CCCC[C@@H]32)c1 -46.7%
C#CCOc1ccc(C2CC(=O)Nc3c2c(C)nn3-c2nc(C)cc(C)n2)cc1 (stereo unspecified) -15.8%
O=c1ccc(-c2ccccc2)nn1Cc1ccc(F)cc1Cl -22.7%
O=C1c2c(O)cc(O)cc2OC(c2ccc(O)c(O)c2)C1O (stereo unspecified) -0.532%
CCOC(=O)N1CCC2(CC1)OC(=O)C(C)=C2C(=O)NCc1cccc(F)c1 -10.6%
Cc1cccc(NC(=O)CN2C(=O)c3cccc4cccc2c34)c1C -51%
CCCN1CCN(c2ncnc3sc(C(=O)Nc4c(C)cc(C)cc4C)c(C)c23)CC1 10.4%
CCc1ccc(C(=O)c2cn(CC(=O)Nc3ccc(OC)cc3)c3cc4c(cc3c2=O)OCO4)cc1 -23.1%
CCC1CN(S(=O)(=O)c2cc(-c3onc(C)c3C)ccc2C)c2cc(Cl)ccc2O1 (stereo unspecified) -33.5%
NC(=O)C1(N2CCCCC2)CCN(C(=O)Nc2ccc(F)cc2F)CC1 -1.91%
Cc1ccccc1Cn1c2ccccc2c2cnn(CC(=O)NC3CCC(C)CC3)c(=O)c21 (stereo unspecified) -10%
COc1cc2c(=O)n(CCC(=O)NCC3CCCO3)c(=O)n(CC(=O)Nc3ccc(C)cc3C)c2cc1OC (stereo unspecified) 8.14%
COc1cc(NC(=O)C(CC(C)C)NS(=O)(=O)c2ccc3c(c2)CCN3C(C)=O)cc(OC)c1 (stereo unspecified) -30.9%
CCc1ccc(CNCc2c(C(=O)O)n(Cc3ccc(C)cc3)c3cc(C)ccc23)cc1 -48.4%
Cc1ccc(NC(=O)CC(C)S(=O)(=O)c2ccc3c(c2)NC(=O)CO3)c(Cl)c1 (stereo unspecified) -8.79%
CC(C)c1ccc2oc(-c3ccc(NC(=O)c4cccc(Br)c4)cc3)nc2c1 -2.19%
CCOc1ccc2nc(N3CCCC(C(=O)Nc4cc(Cl)c(OC)cc4OC)C3)sc2c1 (stereo unspecified) 5.02%
CN(C)CCCOc1nn(Cc2ccccc2)c2ccccc12 -28.8%
CCCCCCSc1nnc2c(n1)OC(C)Nc1ccc(Br)cc1-2 (stereo unspecified) -23.7%
CCOC(=O)c1ccccc1NC(=O)COc1ccccc1-c1nnc(-c2ccccc2)o1 -16%
CSc1nn(Cc2cccc(C)c2)c(N)c1S(=O)(=O)c1ccccc1 -28.8%
COc1ccc(CNC(=O)c2ccc(NC(=O)N3CCSc4ccccc43)cc2)cc1 -5.94%
COc1ccc(-n2c(=O)c3c4c(sc3n(Cc3ccccc3C)c2=O)CCCC4)c(OC)c1 -13%
CCc1cccc(NC(=O)C(Cc2ccccc2)NS(=O)(=O)c2cccs2)c1 (stereo unspecified) -31.3%
CC(=O)c1ccc(Nc2cc(C)nc3nc(Cc4ccccc4)nn23)cc1 -13.8%
COc1ccc(N(CC(=O)NCCc2ccccc2)S(=O)(=O)c2c(C)nn(C)c2C)cc1 -19.5%
NS(=O)(=O)c1ccc(NC(=O)CCC(=O)O)cc1 -2.57%
CCCn1c2ccccc2c2cnn(CC(=O)Nc3cc(OC)c(OC)c(OC)c3)c(=O)c21 -20.2%
CCC1(C)CC(=O)c2c(ccc3oc(C(=O)Nc4ccc(C(C)=O)cc4)c(C)c23)O1 (stereo unspecified) -9.53%
CCc1nc2ccc(C(=O)N3CCN(c4cccc(Cl)c4)CC3)cc2nc1CC -35.4%
CC(C)c1ccc(Nc2sc(C(=O)c3ccccc3)c(N)c2S(=O)(=O)c2ccccc2)cc1 -15.7%
CC(C)CC(=O)Nc1nnc(S(=O)(=O)N2c3ccccc3CC2C)s1 (stereo unspecified) -10.7%
CCOc1ccc(C(=O)NCCc2csc(-c3cccc(C)c3)n2)cc1 -9.2%
Cc1ccc(N2CCN(C(=O)Cn3ncc4c([nH]c5ccc(C)cc54)c3=O)CC2)c(C)c1 -5.72%
COc1cc2c(cc1OC)C(CC(=O)O)N(C(=O)Nc1cc(OC)c(OC)c(OC)c1)CC2 (stereo unspecified) 0.133%
CCc1ccc(C2=NN(CCC(=O)NCCc3ccccc3)C(=O)CC2)cc1 -8.17%
COc1ccc2c(c1)c1c(c(=O)n(-c3cccc(C)c3)c(=O)n1CC(=O)NCCC1=CCCCC1)n2C -9.31%
COc1ccccc1Nc1nc(-c2ccccc2)c(CC(=O)O)s1 7.51%
CCOC(=O)c1c(-c2ccc(OC)c(OC)c2)csc1NC(=O)c1ccccc1F -6.5%
Cc1cccc(CNS(=O)(=O)c2ccc(-c3coc(C)n3)cc2)c1 -30.8%
Cc1ccc2nc3c(cc(C(=O)NC4CCCC4)c(=N)n3C(C)C)c(=O)n2c1 21.9%
CCC(Nc1ccc(-c2nc(-c3cccnc3)no2)cc1[N+](=O)[O-])c1ccccc1 (stereo unspecified) 3.8%
O=c1c2cccnc2n(Cc2cccc(F)c2)c(=O)n1Cc1ccc(F)cc1 -35.5%
Cc1ccccc1OCC(=O)Nc1ccc2nc(SCC(=O)N3CCCC3)sc2c1 -5.93%
O=C1Cc2cc(S(=O)(=O)Nc3ccc(OC(F)(F)F)cc3)cc3c2N1CCC3 -27.1%
COc1ccc(S(=O)(=O)c2nnn(-c3cccc(Cl)c3)c2N)cc1 -35%
CCOC(=O)c1cc(-c2ccc(OC)c(S(=O)(=O)N3CCN(c4ccccc4)CC3)c2)on1 -18.4%
CCOCCOC(=O)c1ccc2c(c1)N(Cc1ccccc1C#N)C(=O)c1ccccc1S2(=O)=O 0.322%
CCN(c1ccccc1)S(=O)(=O)c1ccc(NC(=O)c2nc(S(C)(=O)=O)ncc2Cl)cc1 -96.8%
CCc1ccc(C(=O)COC(=O)C(NC(=O)C2CCC(C)CC2)C(C)C)cc1 (stereo unspecified) -2.24%
CCOc1ccc(CCNC(=O)CCCn2c(=O)c3cccn3c3cccnc32)cc1 -6.57%
COc1cc(CNC(=O)c2cnc3c(-c4cccc(C)c4)c(C)nn3c2C)cc(OC)c1OC -20.6%
COc1ccc(-c2cc3ccc(O)c(CN4CCN(C)CC4)c3oc2=O)cc1OC 2.63%
O=C(NC1CC(=O)N(c2ccc(Cl)cc2)C1)c1cc2ccccc2o1 (stereo unspecified) -10.9%
CC(=O)Nc1ccc(Nc2ccc3cc(S(=O)(=O)N4CCCCC4)ccc3n2)cc1 -24.1%
CCCc1ccc(OCC(=O)Nc2sc3c(c2C(=O)OCC)CCC(C(C)(C)C)C3)cc1 (stereo unspecified) -19.7%
CC(=O)Oc1cc(C(C)C)c(OCCN(C)C)cc1C -5.5%
Nc1cc(=O)nc(SCC(=O)Nc2ccccc2)n1CCc1ccccc1 -2.2%
COC1CCC(N(C(=O)C2CCC(C)CC2)c2cc(C3=CCCCC3)sc2C(=O)O)CC1 (stereo unspecified) -25.2%
CC1=C(c2ccc(Cl)cc2)S(=O)(=O)N=C1N1CCN(c2cc(C)ccc2C)CC1 -12.7%
